Results: the supplement of paper PMC8728848
Some of the results follow.

Key:
Experiment in all cases: glycan array binding signal (z-score within array); higher = stronger binding
Settings in all cases: glycan notation: IUPAC condensed, linker removed
Neu5Ac(a2-3)Gal(b1-4)Glc = biological target: Neu5Ac(a2-3)Gal(b1-4)Glc
In short: (§1)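 Negative Z-scores can be read as non-binding. The Z-score is calculated within each array and then averaged across arrays of one protein sequence at different concentrations or buffers and across linkers. Arrays, 3228 in all, were curated from the Consortium for Functional Glycomics database and kept only where the protein sequence was available.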

[1] = biological target: Neu5Ac(a2-3)Gal(b1-4)GlcNAc
In short: as §1

[2] = biological target: Neu5Ac(a2-3)Gal(b1-4)GlcNAc(b1-2)Man
In short: as §1

[3] = biological target: Neu5Ac(a2-3)Gal(b1-4)GlcNAc(b1-2)Man(a1-3)[GlcNAc(b1-4)][Neu5Ac(a2-3)Gal(b1-4)GlcNAc(b1-2)Man(a1-6)]Man(b1-4)GlcNAc(b1-4)GlcNAc
In short: as §1

[4] = biological target: Neu5Ac(a2-3)Gal(b1-4)GlcNAc(b1-2)Man(a1-3)[Neu5Ac(a2-3)Gal(b1-4)GlcNAc(b1-2)Man(a1-6)]Man(b1-4)GlcNAc(b1-4)GlcNAc
In short: as §1

[5] = biological target: Neu5Ac(a2-3)Gal(b1-4)GlcNAc(b1-2)Man(a1-3)[Neu5Ac(a2-3)Gal(b1-4)GlcNAc(b1-2)Man(a1-6)]Man(b1-4)GlcNAc(b1-4)[Fuc(a1-6)]GlcNAc
In short: as §1

[6] = biological target: Neu5Ac(a2-3)Gal(b1-4)GlcNAc(b1-2)Man(a1-3)[Neu5Ac(a2-6)Gal(b1-4)GlcNAc(b1-2)Man(a1-6)]Man(b1-4)GlcNAc(b1-4)GlcNAc
In short: as §1

[7] = biological target: Neu5Ac(a2-3)Gal(b1-4)GlcNAc(b1-2)[Neu5Ac(a2-3)Gal(b1-4)GlcNAc(b1-4)]Man(a1-3)[GlcNAc(b1-4)][Neu5Ac(a2-3)Gal(b1-4)GlcNAc(b1-2)[Neu5Ac(a2-3)Gal(b1-4)GlcNAc(b1-6)]Man(a1-6)]Man(b1-4)GlcNAc(b1-4)GlcNAc
In short: as §1

[8] = biological target: Neu5Ac(a2-3)Gal(b1-4)GlcNAc(b1-2)[Neu5Ac(a2-3)Gal(b1-4)GlcNAc(b1-4)]Man(a1-3)[GlcNAc(b1-4)][Neu5Ac(a2-3)Gal(b1-4)GlcNAc(b1-4)Man(a1-6)]Man(b1-4)GlcNAc(b1-4)GlcNAc
In short: as §1

[9] = biological target: Neu5Ac(a2-3)Gal(b1-4)GlcNAc(b1-2)[Neu5Ac(a2-3)Gal(b1-4)GlcNAc(b1-6)]Man(a1-6)[Neu5Ac(a2-3)Gal(b1-4)GlcNAc(b1-2)Man(a1-3)]Man(b1-4)GlcNAc(b1-4)GlcNAc
In short: as §1

[10] = biological target: Neu5Ac(a2-3)Gal(b1-4)GlcNAc(b1-2)[Neu5Ac(a2-3)Gal(b1-4)GlcNAc(b1-6)]Man(a1-6)[Neu5Ac(a2-3)Gal(b1-4)GlcNAc(b1-2)Man(a1-3)][GlcNAc(b1-4)]Man(b1-4)GlcNAc(b1-4)GlcNAc
In short: as §1

[11] = biological target: Neu5Ac(a2-3)Gal(b1-4)GlcNAc(b1-3)Gal
In short: as §1

[12] = biological target: Neu5Ac(a2-3)Gal(b1-4)GlcNAc(b1-3)Gal(b1-3)GlcNAc
In short: as §1

[13] = biological target: Neu5Ac(a2-3)Gal(b1-4)GlcNAc(b1-3)Gal(b1-4)GlcNAc
In short: as §1

[14] = biological target: Neu5Ac(a2-3)Gal(b1-4)GlcNAc(b1-3)Gal(b1-4)GlcNAc(b1-2)Man(a1-3)[Neu5Ac(a2-3)Gal(b1-4)GlcNAc(b1-3)Gal(b1-4)GlcNAc(b1-2)Man(a1-6)]Man(b1-4)GlcNAc(b1-4)GlcNAc
In short: as §1

[15] = biological target: Neu5Ac(a2-3)Gal(b1-4)GlcNAc(b1-3)Gal(b1-4)GlcNAc(b1-3)Gal(b1-4)GlcNAc
In short: as §1

[16] = biological target: Neu5Ac(a2-3)Gal(b1-4)GlcNAc(b1-3)Gal(b1-4)GlcNAc(b1-3)Gal(b1-4)GlcNAc(b1-2)Man(a1-3)[Neu5Ac(a2-3)Gal(b1-4)GlcNAc(b1-3)Gal(b1-4)GlcNAc(b1-3)Gal(b1-4)GlcNAc(b1-2)Man(a1-6)]GalNAc
In short: as §1

[17] = biological target: Neu5Ac(a2-3)Gal(b1-4)GlcNAc(b1-3)Gal(b1-4)GlcNAc(b1-3)GalNAc
In short: as §1

[18] = biological target: Neu5Ac(a2-3)Gal(b1-4)GlcNAc(b1-3)Gal(b1-4)GlcNAc(b1-3)[Neu5Ac(a2-3)Gal(b1-4)GlcNAc(b1-3)Gal(b1-4)GlcNAc(b1-6)]GalNAc
In short: as §1

[19] = biological target: Neu5Ac(a2-3)Gal(b1-4)GlcNAc(b1-3)Gal(b1-4)GlcNAc(b1-6)[Gal(b1-3)]GalNAc
In short: as §1

[20] = biological target: Neu5Ac(a2-3)Gal(b1-4)GlcNAc(b1-3)Gal(b1-4)[Fuc(a1-3)]GlcNAc
In short: as §1

[21] = biological target: Neu5Ac(a2-3)Gal(b1-4)GlcNAc(b1-3)GalNAc
In short: as §1

[22] = biological target: Neu5Ac(a2-3)Gal(b1-4)GlcNAc(b1-3)[Neu5Ac(a2-3)Gal(b1-4)GlcNAc(b1-6)]GalNAc
In short: as §1

[23] = biological target: Neu5Ac(a2-3)Gal(b1-4)GlcNAc(b1-6)GalNAc
In short: as §1

[24] = biological target: Neu5Ac(a2-3)Gal(b1-4)GlcNAc(b1-6)[Gal(b1-3)]GalNAc
In short: as §1

[25] = biological target: Neu5Ac(a2-3)Gal(b1-4)GlcNAc(b1-6)[Neu5Ac(a2-3)Gal(b1-3)]GalNAc
In short: as §1

[26] = biological target: Neu5Ac(a2-3)Gal(b1-4)GlcNAc6S
In short: as §1

[27] = biological target: Neu5Ac(a2-3)Gal(b1-4)[Fuc(a1-3)]GlcNAc
In short: as §1

[28] = biological target: Neu5Ac(a2-3)Gal(b1-4)[Fuc(a1-3)]GlcNAc(b1-2)Man
In short: as §1

[29] = biological target: Neu5Ac(a2-3)Gal(b1-4)[Fuc(a1-3)]GlcNAc(b1-3)Gal
In short: as §1

[30] = biological target: Neu5Ac(a2-3)Gal(b1-4)[Fuc(a1-3)]GlcNAc(b1-3)Gal(b1-4)GlcNAc
In short: as §1

[31] = biological target: Neu5Ac(a2-3)Gal(b1-4)[Fuc(a1-3)]GlcNAc(b1-3)Gal(b1-4)[Fuc(a1-3)]GlcNAc(b1-3)Gal(b1-4)[Fuc(a1-3)]GlcNAc
In short: as §1

[32] = biological target: Neu5Ac(a2-3)Gal(b1-4)[Fuc(a1-3)]GlcNAc(b1-3)GalNAc
In short: as §1

[33] = biological target: Neu5Ac(a2-3)Gal(b1-4)[Fuc(a1-3)]GlcNAc(b1-6)[Gal(b1-3)]GalNAc
In short: as §1

[34] = biological target: Neu5Ac(a2-3)Gal(b1-4)[Fuc(a1-3)]GlcNAc(b1-6)[Neu5Ac(a2-3)Gal(b1-3)]GalNAc
In short: as §1

[35] = biological target: Neu5Ac(a2-3)Gal(b1-4)[Fuc(a1-3)]GlcNAc6S
In short: as §1

[36] = biological target: Neu5Ac(a2-3)Gal6S(b1-4)GlcNAc
In short: as §1

[37] = biological target: Neu5Ac(a2-3)Gal6S(b1-4)[Fuc(a1-3)]GlcNAc
In short: as §1

B1: GS7807H-bfa-490-18-490 (Bacteroides fragilis) (protein)
chain: GNLEEMNIDPDNATQTHPKLLLTQICMNAFKRGTDGMYATKKVIQADGESADQYYKWTRGSFGYYDNLRNVQKMGEEAERVNAPVYTALTKFFRAYYFYELTLRFGDIPYSQALKGEKEEIYTPEYDAQEDVFAGILQELREADEILANDASVIDGDIIYNGNSTQWRKLINSFRLKVLMTLSNHTTVGNINIASEFKNIATNSPLMNSLADNGQLVYLDQQGNRYPQFNAQWSGYYMDDTFIQRMRERRDPRLFIFSAQTNKGKTEGKPIDDFSSYEGGDPAAPYSDAIIKVSEGTISPINDRFRTDPIVEPTMLMGYAELQQILAEAVVRGWISGNAQTYYEKGIRASFSFYETHAKDYAGYLNENAVAQYLKEPLVDFTQASGTEEQIERIIMQKYLVTFYQGNWDSFYEQLRTGYPDFRRPAGTEIPKRWMYPQGEYDNNGTNVETAITRQFGAGNDKINQATWWQKKS
Neu5Ac(a2-3)Gal(b1-4)Glc
  glycan array binding signal (z-score): -0.346
[1]
  glycan array binding signal (z-score): 0.231
[2]
  glycan array binding signal (z-score): -0.275
[3]
  glycan array binding signal (z-score): -0.65
[4]
  glycan array binding signal (z-score): -0.408
[5]
  glycan array binding signal (z-score): 0.051
[6]
  glycan array binding signal (z-score): -0.298
[7]
  glycan array binding signal (z-score): -0.463
[8]
  glycan array binding signal (z-score): -0.302
[9]
  glycan array binding signal (z-score): 0.482
[10]
  glycan array binding signal (z-score): 0.115
[11]
  glycan array binding signal (z-score): 0.517
[12]
  glycan array binding signal (z-score): -0.423
[13]
  glycan array binding signal (z-score): -0.498
[14]
  glycan array binding signal (z-score): 1.09
[15]
  glycan array binding signal (z-score): 0.175
[16]
  glycan array binding signal (z-score): 9.02
[17]
  glycan array binding signal (z-score): -0.386
[18]
  glycan array binding signal (z-score): 0.655
[19]
  glycan array binding signal (z-score): -0.551
[20]
  glycan array binding signal (z-score): -0.682
[21]
  glycan array binding signal (z-score): -0.583
[22]
  glycan array binding signal (z-score): -0.793
[23]
  glycan array binding signal (z-score): -0.497
[24]
  glycan array binding signal (z-score): -0.693
[25]
  glycan array binding signal (z-score): -0.804
[26]
  glycan array binding signal (z-score): -0.051
[27]
  glycan array binding signal (z-score): -0.511
[28]
  glycan array binding signal (z-score): -0.282
[29]
  glycan array binding signal (z-score): 0.009
[30]
  glycan array binding signal (z-score): 0.422
[31]
  glycan array binding signal (z-score): -0.314
[32]
  glycan array binding signal (z-score): 5.66
[33]
  glycan array binding signal (z-score): 0.01
[34]
  glycan array binding signal (z-score): 0.488
[35]
  glycan array binding signal (z-score): 0.272
[36]
  glycan array binding signal (z-score): -0.649
[37]
  glycan array binding signal (z-score): -0.29
